The whole screen tested about 310,000 compounds, of which about 18,000 (5.8%) were called active. The inconclusive results got no clear call from the source; some entries with a clear call stand among them for comparison. Calls come from the whole dose curve; as a rule, active = well fitted inhibition curve with a large enough effect; inconclusive = small, poorly fitted or top-dose-only effect, or another doubt; inactive = no such curve, though single readings can be large or run the other way. Potencies of inconclusive entries are left out as doubtful fits.
Experiment: Primary qHTS for delayed death inhibitors of the malarial parasite plastid, 48 hour incubation
Settings: P. falciparum luciferase growth in erythrocytes; series mostly up to 28.7 µM; activity change, negative = inhibition: at the top concentration
Outline: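 Growth was read as firefly luciferase luminescence after a 48 h, 37 C, 5% CO2 exposure of compounds to reporter-bearing P. falciparum cultures (0.1% parasitemia, 2% hematocrit final) in Albumax-supplemented RPMI 1640.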
% is set by controls: 0 for no effect and ±100 for the full control effect; potency is the fitted concentration of half-maximal effect; tags give direction and shape of the fitted curve.

| Compound | Potency | activity change, negative = inhibition |
| --- | --- | --- |
| COc1ccc(NC(=O)CN(C)C(=O)Cc2c[nH]c3ccccc23)cc1 | inconclusive [inhibitor, single point] |  |
| NCCc1ccc(OCc2ccccc2)c(OCc2ccccc2)c1 | inconclusive [inhibitor, single point] |  |
| COc1ccc(NC(=O)CC2SC(=NCc3ccccc3OC)NC2=O)cc1 (stereo unspecified) | inconclusive [inhibitor, single point] |  |
| COc1ccc(S(=O)(=O)CCC(=O)N2c3ccccc3CC2C)cc1 (stereo unspecified) |  | inactive: -25.4% |
| O=C(NNc1nc(-c2ccccc2)c2cc(Br)ccc2n1)c1ccc(S(=O)(=O)N2CCOCC2)cc1 |  | inactive: 1.66% |
| C=CC(=O)NC(NC(=O)C=C)c1ccccc1F | inconclusive [inhibitor, partial curve, poor fit] |  |
| Nc1nc(N)nc(-c2cc(Cl)ccc2Cl)n1 |  | inactive: -5.48% |
| CCn1c(SCc2ccccc2)nnc1C1CCN(S(=O)(=O)c2ccc(OC)cc2)CC1 | inconclusive [inhibitor, partial curve] |  |
| CC(NC(=O)COc1cc(=O)n(C)c2ccccc12)c1ccc2c(c1)OCCO2 (stereo unspecified) |  | inactive: 13.6% |
| Cc1ccc[n+](CC(=O)c2ccc(Br)cc2)c1C | inconclusive [inhibitor, full curve] |  |
| CC(C)NC(=O)NC(=O)COC(=O)c1ccc(F)cc1F |  | inactive: -0.937% |
| COc1ccc2oc(C)c(C(=O)c3ccc(C)cc3)c2c1 |  | inactive: 13.3% |
| COc1ccc(C(CC(=O)Nc2ccc(C)cn2)N2Cc3ccccc3C2=O)cc1 (stereo unspecified) | inconclusive [inhibitor, single point] |  |
| CCN(Cc1ccccc1)C(c1ccncc1)c1nnnn1C(C)(C)C (stereo unspecified) | inconclusive [inhibitor, single point] |  |
| ClCc1csc(-c2ccc(Cl)cc2)n1 |  | inactive: 5.56% |
| CCCc1cc(=O)oc2cc3occ(C)c3cc12 |  | inactive: 6.45% |
| CCOc1ccc(CCNC(=O)COC(=O)/C=C/c2ccco2)cc1OCC | active: 8.28 µM |  |
| Cc1ccc(C(=O)N/C(=C\c2ccco2)C(=O)NCCCn2ccnc2)cc1C |  | inactive: -8.96% |
| CCN(CC)C(=O)N[C@H]1C[C@@H]2c3cccc4[nH]cc(c34)C[C@H]2N(C)C1 | inconclusive [inhibitor, partial curve] |  |
| O=c1c2ccccc2c2ccccc2c(=O)n1Cc1ccco1 |  | inactive: 20.8% |
| CN1/C(=C\C=C\C2=[N+](C)c3ccc4ccccc4c3C2(C)C)C(C)(C)c2ccccc21 | active: 1.31 µM |  |
| CC1C/C(=N/Nc2nc3ccccc3[nH]2)CC(C)(C)C1 (stereo unspecified) | active: 3.7 µM |  |
| Oc1c(C(c2ccc(Cl)cc2)N2CCCC2)cc(Cl)c2cccnc12 (stereo unspecified) | active: 3.29 µM |  |
| Cc1cccc(C(=O)N2CCc3cc(-c4nc(NC(=O)CN5CCCC5)sc4C)ccc32)c1 | inconclusive [inhibitor, single point] |  |

| Compound | Potency | activity change, negative = inhibition |
| --- | --- | --- |
| O=C(NCc1ccc(Cl)cc1)c1n[nH]c([N+](=O)[O-])c1Cl | inconclusive [inhibitor, single point] |  |
| COc1cc(/C=C2\C(=N)N3N=CSC3=NC2=O)cc(Br)c1OC(=O)c1ccco1 | inconclusive [inhibitor, single point] |  |
| CCN(c1ccccc1)S(=O)(=O)c1ccc(OC)c(NC(=O)Cc2ccc(F)cc2)c1 | inconclusive [inhibitor, single point] |  |
| CC1(c2ccccc2Cl)NC(=O)N(CC(=O)Nc2cccnc2Cl)C1=O (stereo unspecified) | inconclusive [inhibitor, partial curve, poor fit] |  |
| COc1cc(C2Nc3ccccc3C(=O)N2c2ccc3c(c2)OCCO3)ccc1OCC(C)C (stereo unspecified) |  | inactive: -21.7% |
| C=C(C)[C@@H]1CCC2(C(=O)O)CC[C@]3(C)[C@H](CC[C@@H]4[C@@]5(C)CCC(=O)C(C)(C)[C@@H]5CC[C@]43C)[C@@H]12 (stereo partly specified) | inconclusive [inhibitor, partial curve, poor fit] |  |
| Cc1occc1C(=O)N/N=C/c1ccc(OCc2ccccc2)cc1 | inconclusive [inhibitor, single point] |  |
| Cc1ccccc1[C@@]1(C)ON(c2ccccc2C(F)(F)F)C1=O | active: 1.65 µM |  |
| C/C(=N\NC(=O)c1cccc(N/N=C(\C)c2ccc([N+](=O)[O-])cc2)c1)c1ccc([N+](=O)[O-])cc1 | active: 1.65 µM |  |
| CCc1ccccc1NC(=S)NN |  | inactive: 15.9% |
| O=C(CCCCCCN1C(=O)c2ccccc2C1=O)Nc1nccs1 | inconclusive [inhibitor, single point] |  |
| CCC(C(=O)Nc1cccc(C(F)(F)F)c1)c1ccccc1 (stereo unspecified) | inconclusive [inhibitor, single point] |  |
| Nc1nnc(-c2ccccc2[N+](=O)[O-])o1 |  | inactive: -2.54% |
| c1cn2c(Nc3ccc4c(c3)OCCO4)c(-c3ccc(N4CCOCC4)cc3)nc2cn1 | inconclusive [inhibitor, single point] |  |
| Cc1sc2c(c1C)CN(C1CC(C)(C)NC(C)(C)C1)CN2C(=O)c1ccco1 | inconclusive [inhibitor, single point] |  |
| COc1cc(SC)ccc1C(=O)Nc1nc2ccccc2[nH]1 | inconclusive [inhibitor, full curve, poor fit] |  |
| Cc1sc(N)nc1-c1ccc2c(c1)OCCO2 |  | inactive: 22.9% |
| CCOC(=O)/C=C/C(=O)OCC(=O)Nc1ccc([N+](=O)[O-])cc1 |  | inactive: 34.5% |
| O=[N+]([O-])c1ccc(N/N=C/c2sc(N3CCOCC3)nc2-c2ccccc2)c(S(=O)(=O)Nc2ccc(Cl)cc2)c1 | inconclusive [inhibitor, full curve] |  |
| COc1ccc(NC(=S)N(CCO)Cc2cc3c(C)cc(C)cc3[nH]c2=O)cc1 | inconclusive [inhibitor, single point] |  |
| CN(C)c1ccc(/C=N/Nc2ccc(-n3ccnc3)nn2)cc1 | inconclusive [inhibitor, single point] |  |
| COc1cc(C(=O)NCC(c2cccs2)N2CCOCC2)cc(OC)c1OC (stereo unspecified) | inconclusive [inhibitor, partial curve, poor fit] |  |
| CCOC(=O)c1c(C)c(C(=O)Nc2ccc(N(C)C)cc2)c(C)n1CC |  | inactive: 59.6% |
| O=C(N/N=C/c1ccc(OC(=O)c2ccc3c(c2)OCO3)cc1)c1cncc(Br)c1 |  | inactive: 16.4% |

| Compound | Potency | activity change, negative = inhibition |
| --- | --- | --- |
| Cc1ccc(C)c(NC(=S)N/N=C/C(C)c2ccccc2)c1 (stereo unspecified) | inconclusive [inhibitor, single point] |  |
| CN(Cc1ccccc1)c1nc2nonc2nc1N1CCCC(CN2CCCC2=O)C1 (stereo unspecified) | inconclusive [inhibitor, partial curve, poor fit] |  |
| COC(=O)c1cc2c(ccn2-c2ccc(F)cc2)n1Cc1ccc(C#N)cc1 | inconclusive [inhibitor, single point] |  |
| O=C(O)C(Cc1c[nH]c2ccccc12)N1Cc2ccccc2C1=O (stereo unspecified) |  | inactive: 127% |
| Cc1ccc2nc(/C(C#N)=C\c3ccc([N+](=O)[O-])o3)[nH]c2c1 | active: 10.4 µM |  |
| CC(=O)Nc1nnc(SCc2ccc(C(=O)Nc3ccccc3F)cc2)s1 | inconclusive [inhibitor, full curve, poor fit] |  |
| Cc1ccc2nc(Cl)c(CN(C(=O)c3cnccn3)C3CCCCC3)cc2c1 | inconclusive [inhibitor, single point] |  |
| COc1cccc(NC(=O)C2C3C=CC(O3)C2C(=O)O)c1 (stereo unspecified) |  | inactive: -0.0339% |
| COc1ccc(NC2CC(=O)N(c3cccc([N+](=O)[O-])c3)C2=O)cc1 (stereo unspecified) |  | inactive: 1.02% |
| COc1ccc(-c2cn3c(C)c(C(=O)NCCN4CCOCC4)sc3n2)cc1 | inconclusive [inhibitor, partial curve, poor fit] |  |
| CC(=N\NC(=O)c1ccc([N+](=O)[O-])cc1)/C(=N/O)C(=O)Nc1ccccc1 | inconclusive [inhibitor, single point] |  |
| COC(=O)C1=C(C)NC(=O)NC1c1ccccc1 (stereo unspecified) |  | inactive: -8.51% |
| Cc1c(NC2=C(Cl)C(=O)N(c3ccccc3)C2=O)c(=O)n(-c2ccccc2)n1C |  | inactive: 1.24% |
| CCOC(=O)C1=C(CCc2ccccc2)NC(=O)NC1c1ccc2ccccc2c1 (stereo unspecified) | inconclusive [inhibitor, partial curve, poor fit] |  |
| Cc1cccc(N2CCN(S(=O)(=O)c3ccc4c(c3)CC(C)N4C(=O)C3CC3)CC2)c1C (stereo unspecified) | inconclusive [inhibitor, single point] |  |
| CCOCCCNC(=O)c1cc(Cl)c(NC(=O)C2=C(C)OCCS2)cc1OC | inconclusive [inhibitor, single point] |  |
| CCOc1ccc(N2C(=O)CC(/C=C3/N(C)c4ccccc4C3(C)C)C2=O)cc1 (stereo unspecified) | inconclusive [inhibitor, single point] |  |
| CCN(C(C)=O)c1nc(CSc2nnc(NC(C)C)s2)cs1 | inconclusive [inhibitor, single point] |  |
| CCN(Cc1ccc2c(c1)OCCO2)C(=O)CN1C(=O)NC2(CCCCC2)C1=O | inconclusive [inhibitor, partial curve, poor fit] |  |
| Cc1ccc(S(=O)(=O)N2CCCCC2)cc1NC(=O)COC(=O)C1(C)CC1(Cl)Cl (stereo unspecified) | inconclusive [inhibitor, single point] |  |
| CCN(CC)S(=O)(=O)c1ccc(C(=O)NCc2cccs2)cc1 |  | inactive: -11.9% |
| COC(=O)c1ccc(C2/C(=C(/O)c3ccc4c(c3)CC(C)O4)C(=O)C(=O)N2Cc2ccncc2)cc1 (stereo unspecified) |  | inactive: -16.3% |
| COc1ccc(C2CC(c3cccs3)=NN2C(=O)CSc2nc(=O)n3ccccc3n2)cc1 (stereo unspecified) | active: 13.1 µM |  |

Reference: PubChem BioAssay AID504832 (National Center for Advancing Translational Sciences (NCATS), 2011)
